# Reference: PubChem BioAssay AID1963576 (National Center for Advancing Translational Sciences (NCATS), 2024)
# Out of some 46,000 compounds screened, about 60 (0.1%) were called active. Another 3% or so got no clear call; they are omitted. Calls come from the whole dose curve; as a rule, active = well fitted inhibition curve with a large enough effect; inconclusive = small, poorly fitted or top-dose-only effect; inactive = no such curve, though single readings can be large or run the other way. The list shows a part of the results.
# Assay: Primary qHTS assay for Inhibitors of ovarian cancer metastasis using an organotypic tumor microenvironment (TME) model.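 For activity change, negative = inhibition: plate controls were DMSO wells for no effect and tomatine positive control wells for full effect.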 Note: nearly all actives have a fitted effect of over 65% in size.
# Conditions: SKOV3ip1-GFP adhesion/invasion on 3D omental model, fluorescence; series mostly up to 45.8 µM; activity change, negative = inhibition: at the top concentration
# Outline: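 qHTS, 4-pt dose (0.36-46 umol/L); SKOV3ip1-GFP, 1,200 cells/well, no FBS; primary omental fibroblast/mesothelial co-culture 48 h pre-grown; 2 h RT + 16 h 37 C; PBS wash, 4% PFA; GFP count 488/509 nm.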
SMILES,"activity change, negative = inhibition",outcome
CCOc1cccc(C(=O)N2CCC(c3nc4ccccc4s3)CC2)c1,inactive: -2.26%,
Cn1nc(-c2ccccc2F)c2cc(C(=O)NCCc3ccc(Cl)cc3)sc21,inactive: -23.5%,
O=C(c1ccc(Br)cc1)N1CCN(CCc2ccncc2)CC1,inactive: 19.4%,
CCOC(=O)C1CCN(C(c2cccc(F)c2)c2c(O)cc(C)n(Cc3ccco3)c2=O)CC1 (centres undefined),inactive: 0.391%,
COCCCNC(=O)c1cnc2c(-c3ccc(F)cc3)c(C)nn2c1C,,inactive
Cc1ccc(S(=O)(=O)Cc2ccc(C(=O)NCCc3ccc(Cl)cc3)o2)cc1,inactive: -27.3%,
Brc1cccc(-c2nnc(CN3CCN(c4ccccn4)CC3)o2)c1,inactive: -1.1%,
CN(C)c1ccc(CNC(=O)c2cnc3sc(N4CCOCC4)nn3c2=O)cc1,inactive: -6.27%,
CC(=O)c1ccc(NC(=O)CSc2ccc(-c3cccs3)nn2)cc1,inactive: 1.39%,
CCOc1ccc(-c2nc(SCC(=O)c3ccccc3)n[nH]2)cc1,inactive: -7.63%,
CCOC(=O)c1c(S(=O)(=O)N2CCCC(C(=O)Nc3cc(C)ccn3)C2)c(C)n(C)c1C (centres undefined),inactive: -9.39%,
CCOC(=O)c1ccc(NC(=O)CCC(=O)N2Cc3ccccc3Oc3ncccc32)cc1,inactive: -4.79%,
COc1ccc(OC)c(NC(=O)C2CCN(S(=O)(=O)c3ccc4c(c3)CCCC(=O)N4)CC2)c1,inactive: -12.7%,
O=C(NC1CCCCC1)c1ccc(CSc2nc3cccnc3n2Cc2ccc(F)cc2)cc1,inactive: -4.04%,
CCOC(=O)c1cc(C)n(CC2CCC(C(=O)Nc3cccc(C)c3)CC2)c1C (centres undefined),inactive: 27.3%,
C=Cc1ccc(Cn2nc(-c3ccc(C)cc3)ccc2=O)cc1,,inactive
Cc1cc(C)nc(NC(=NCCc2c[nH]c3ccc(Cl)cc23)NC(=O)c2ccccc2C)n1,,inactive
COC(=O)C1=C(C)NC(=O)C1(NC(=O)c1cc(OC)c(OC)c(OC)c1)C(F)(F)F (centres undefined),inactive: -6.79%,
COCCNc1ccc(-c2nc(-c3ccco3)no2)cc1[N+](=O)[O-],,inactive
Cc1cccc(Nc2nnc(-c3ccc(C)c(S(=O)(=O)NCC4CCCO4)c3)c3ccccc23)c1 (centres undefined),inactive: 6.07%,
CCOC(=O)c1ccc(N2C(=O)c3n[nH]c(-c4ccco4)c3C2c2ccc(O)c(OCC)c2)cc1 (centres undefined),inactive: -1.68%,
Cc1cccc(-n2c(Cc3ccccc3)nnc2SCc2nc(-c3cccs3)no2)c1,inactive: 9.02%,
O=C1c2[nH]nc(-c3ccccc3O)c2C(c2ccccc2F)N1Cc1cccnc1 (centres undefined),inactive: 2.38%,
O=C1CC(c2nnc(Cc3ccc(F)cc3Cl)o2)CN1c1ccccc1 (centres undefined),,inactive

SMILES,"activity change, negative = inhibition",outcome
O=C(CN1C(=O)COc2ccc(S(=O)(=O)N3CCCC3)cc21)N1CCN(c2ccc(F)cc2)CC1,inactive: -24%,
COC(=O)c1ccc(NC(=O)CN2C(=O)CCc3cc(S(=O)(=O)N4CCCCC4)ccc32)cc1,inactive: 67.2%,
Cc1cnc(CNC(=O)c2c(=O)c3ccc(N4CCCN(C)CC4)nc3n3c2sc2ccccc23)cn1,inactive: 2.27% [at 23.2 µM],
N#Cc1ccccc1Cn1c(=O)n(-c2cccc(C(F)(F)F)c2)c(=O)c2sccc21,,inactive
Cc1[nH]c(=O)[nH]c(=O)c1S(=O)(=O)N1CCN(c2ccccc2Cl)CC1,inactive: 6.57%,
O=C(O)CCn1c(=O)c2cccn2c2cccnc21,inactive: -8.54%,
CCOC(=O)c1cc(-c2ccccc2)n(CCCC(=O)Nc2cccc(C)c2C)c1C,inactive: -2.98%,
COc1ccc(S(=O)(=O)NCC(c2ccco2)N2CCN(c3ccccc3)CC2)cc1OC (centres undefined),,inactive
Cc1ccc(NC(=O)C(=O)NCC(c2cccnc2)N2CCN(c3ccccc3F)CC2)cc1Cl (centres undefined),,inactive
CCc1ccccc1Nc1nn2c(=O)c3ccc(C(=O)NC(C)c4ccccc4)cc3nc2s1 (centres undefined),inactive: -3.35%,
CCc1ccc(NC(=O)CC2C(=O)N(c3ccc(Cl)cc3)C(=O)N2Cc2ccco2)cc1 (centres undefined),inactive: 8.07%,
COc1ccccc1NC(=O)c1sc2nc(C)c(C(=O)Nc3ccc(C)cc3C)c(-c3cccs3)c2c1N,inactive: 8.02%,
CCOC(=O)c1c(C)[nH]c(CCC(=O)NCc2ccc(F)cc2)c1C,inactive: -6.46%,
CC(C)(C)C1CCc2c(sc3nc(-c4cc5cc(Br)ccc5oc4=O)[nH]c(=O)c23)C1 (centres undefined),inactive: 7.85%,
CC(=O)Nc1ccc(NC(=O)c2cc3sccc3n2Cc2ccc(F)cc2)cc1,inactive: -4.1%,
CCc1ccc(CN2CCc3nc(Nc4ccccc4)ncc3C2)cc1,inactive: 5.11%,
Cc1cccc2sc(N(Cc3cccnc3)C(=O)c3cccs3)nc12,inactive: 0.919%,
CCOc1cc2[nH]c(=O)n(CCCCC(=O)N3CCN(c4cccc(Cl)c4)CC3)c(=O)c2cc1OCC,inactive: 0.533%,
CCOc1ccc(NC(=O)Cn2ncc3c2-c2cc(C)ccc2OC3)cc1,,inactive
Cc1ccc(NC(=O)Cc2ccc(-n3c(C)nc4cccnc43)cc2)c(Cl)c1,inactive: 8.92%,
CCC(=O)N1CCc2cc(Br)cc(S(=O)(=O)CCC(=O)NCc3ccccc3OC)c21,inactive: -2.69%,
Cc1ccc(-c2noc(-c3ccccc3NC(=O)c3ccccc3)n2)cc1,inactive: 18.4%,
CCCCN(CC)C(=O)CSc1nc2n[nH]c(C)c2c(=N)n1-c1cccc(Cl)c1,inactive: -8.98%,
CCOC(=O)c1[nH]c(C)c(CCC(=O)N2CCN(c3cccc(OC)c3)CC2)c1C,inactive: -4.56%,

SMILES,"activity change, negative = inhibition",outcome
Cc1ccc(CNC(=O)C(=O)Nc2c3c(nn2-c2ccccc2)CSC3)cc1,inactive: -12.4%,
COc1ccc(CCNC(=O)C(=O)Nc2ccccc2F)cc1,inactive: -1.73%,
COc1ccccc1C(=O)NCCn1cc(SCC(=O)Nc2ccccc2F)c2ccccc21,,inactive
CC(C)Cn1cc(NC(=O)N2CCN(c3cccc(Cl)c3)CC2)c2ccccc2c1=O,,inactive
Cc1ccc(C)c(N2CCN(S(=O)(=O)c3ccc4[nH]c5c(c4c3)CCCCC5)CC2)c1,,inactive
CC1CCN(S(=O)(=O)c2ccc3c(c2)N(CC(=O)NC(C)c2ccccc2)C(=O)CS3)CC1 (centres undefined),inactive: 5.62%,
COc1ccccc1CNS(=O)(=O)c1ccc2c(c1)CC(C)N2C(C)=O (centres undefined),inactive: 2.44%,
O=C(NCc1ccccc1)c1ccc(CNS(=O)(=O)c2ccc(Br)cc2)cc1,inactive: -3.89%,
Cc1cc(C)c(NC(=O)c2cc(S(=O)(=O)N3CCC4(CC3)OCCO4)ccc2F)c(C)c1,inactive: 4.46%,
Cc1ccc(-c2nc(NC(=O)CSc3cc(C)c4ccccc4n3)ns2)cc1,inactive: -2.67%,
CCCn1c(=O)c2[nH]c(-c3cnn(Cc4cccc(C(F)(F)F)c4)c3)nc2n(CC)c1=O,inactive: 2.89%,
COC(=O)c1ccc(NC(=O)CC2C(=O)N(c3cccc(OC)c3)C(=O)N2Cc2cccs2)cc1 (centres undefined),inactive: -15.5%,
CCc1ccc(NC(=O)N2CCOc3ccc(Cl)cc32)cc1,inactive: 4.91%,
COc1cc(Cl)c(S(=O)(=O)NCCc2c(C)[nH]c3c(C)cccc23)cc1Cl,inactive: 40.2%,
CCc1ccc(NC(=O)CSc2nc(=O)n(Cc3ccccn3)c3c2CCC3)cc1,inactive: 6.05%,
O=C(Nc1nnc(S(=O)(=O)N2CCCc3ccccc32)s1)c1cccc(Cl)c1,inactive: -7.47%,
COc1cccc(C2C(C(=O)Nc3ccc(C)cc3C)=C(C)Nc3c(C(=O)Nc4ccccc4)cnn32)c1 (centres undefined),inactive: -2.21%,
CC1CCCN(C(=O)CSc2c3c(nc4cc(Cl)ccc24)CCCC3)C1 (centres undefined),inactive: -13%,
O=C(Nc1cc(-c2nc3cc(Cl)ccc3o2)ccc1Cl)c1ccco1,,inactive
COC(=O)c1ccc(C2c3c(-c4ccccc4O)n[nH]c3C(=O)N2Cc2cccnc2)cc1 (centres undefined),inactive: 15.4%,
COc1ccc(Cn2c(C(=O)O)c(CNCc3ccccc3F)c3ccc(OC)cc32)cc1,,inactive
CCCSc1ncc(Cl)c(C(=O)Nc2ccc(S(=O)(=O)N(C)c3ccccc3)cc2)n1,inactive: -5.22%,
CCN(CCCNC(=O)Cn1ncc2c3ccccc3n(C)c2c1=O)Cc1ccccc1,inactive: -1.44%,
COc1ccc(NC(=O)c2cc(S(=O)(=O)N3CCOCC3)ccc2OC)cc1,inactive: 9.3%,

SMILES,"activity change, negative = inhibition",outcome
CCn1nnc2c(N3CCOCC3)nc(-c3ccc(NC(=O)Nc4ccc(C(=O)N5CCN(C)CC5)cc4)cc3)nc21,inactive: -16.1%,
COc1ccc(S(=O)(=O)N2CCC(C(=O)Nc3ccc(Oc4ccccc4)cc3)CC2)cc1,inactive: -6.76%,
CCc1cccc(C)c1NS(=O)(=O)c1c(C(=O)N2CCC(C)CC2)c(C)n(C)c1C,inactive: -7.23%,
NS(=O)(=O)c1cc(C(=O)O)c(NCc2ccco2)cc1Cl,inactive: -20.1%,
CC(C)OC(=O)[C@H](C)N[P@](=O)(OC[C@H]1O[C@@H](n2ccc(=O)[nH]c2=O)[C@](C)(F)[C@H]1O)Oc1ccccc1,inactive: 1.36%,
CCOc1ccccc1N(CC)C(=O)Cn1ncc2c([nH]c3ccccc32)c1=O,inactive: 4.52%,
Cc1nnc(N2CCC(C(=O)NC3CCCCC3)CC2)c2nn(-c3ccccc3)c(C)c12,inactive: -2.52%,
COc1ccc(CNC(=O)c2cc3cc4cc(OC)ccc4nc3o2)cc1,inactive: 4.48%,
COc1cccc(CNC(=O)c2ccc3c(c2)c(C)c(C)n3Cc2ccccc2)c1,,inactive
Cc1ccc(C)c(NC(=O)N2CCN(C(=O)c3nsc4ccccc34)CC2)c1,inactive: 1.38%,
COc1cc(Cl)c(C)cc1NC(=O)C1CCN(c2nc3ccccc3n3cccc23)CC1,inactive: -1.67%,
COc1ccc(OC)c(NS(=O)(=O)c2ccc3c(c2)C(C)(C)C(=O)N3C)c1,inactive: -5.16%,
COc1ccc(S(=O)(=O)Nc2cccc(-c3ccc(N4CCCC4)nn3)c2)c(OC)c1,inactive: -3.14%,
CC(=O)c1ccc(NC(=O)c2nc3ccccc3nc2N2CCCCC2)cc1,inactive: 21.5%,
O=C(c1ccccc1)N1CCN(CCc2ccncc2)CC1,inactive: 0.279%,
COc1ccccc1C(=O)Nc1cccc(C(=O)OCc2cc(=O)n3cc(C)sc3n2)c1,inactive: 20.7%,
CCOc1ccc(CCNC(=O)c2cn(C)c3ccc(S(=O)(=O)N4CCCCC4)cc3c2=O)cc1OCC,inactive: 6.76%,
CC1=C(c2ccc(C)c(C)c2)S(=O)(=O)NC1=NCc1ccccc1Cl,inactive: 15%,
CCOC(=O)c1c(C)[nH]c(C)c1S(=O)(=O)N1CCC(C(=O)Nc2cc(Cl)ccc2OC)CC1,,inactive
Cc1cc(C)c(NC(=O)c2sc3nc(C)cc(C)c3c2NC(=O)c2ccccc2)c(C)c1,,inactive
CCC(=O)N1c2ccccc2CC1C(=O)NCCc1ccc(OC)c(OC)c1 (centres undefined),,inactive
COC(=O)CN1C(=O)CSc2ccc(S(=O)(=O)Nc3cc(C)ccc3C)cc21,inactive: -0.239%,
